# Measurements from a collection of fitness landscapes (doi:10.1016/j.celrep.2020.107928).
# In all, about 81,000 sequences were measured (“one-hybrid fitness for binding NBS DNA”: median about -0.1, highest 2% from about 0.36 on). The list shows a part of the results.
# B1: Caulobacter ParB omega fusion; a variant is named by its letters at X, in order, B8GW30 (parent)
# chain: MESVVVGEPGMSEGRRGLGRGLSALLGEVDAAPAQAPGEQLGGSREAPIEILQRNPDQPRRTFREEDLEDLSNSIREKGVLQPILVRPSPDTAGEYQIVAGERAWRAAQRAGLKTVPIMVRELDDLAVLEIGIIENVQRADLNVLEEALSYKVLMEKFERTQENIAQTIGKSXSHVANXMRLLXLPDEVQSYLVSGELTAXHARAIAAAADPVALAKQIIEGGLSVRETEALARKAPNLSAGKSKGGRPPRVKDTDTQALESDLSSVLGLDVSIDHRGSTGTLTITYATLEQLDDLCNRLTRGI
# Variants of: B1
# Assay: one-hybrid fitness for binding NBS DNA (the Noc-binding site; scaled: cognate 1, non-cognate 0); higher = stronger binding
# Conditions: with NBS DNA site
# Summary of the method: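 Selection: bacterial one-hybrid in E. coli USO, HIS3 reporter with the site 19 bp from the promoter, 48 hours at 37°C on M9-minus-histidine plus 0.1 mM IPTG and 5 mM 3-AT. Libraries were Caulobacter ParB with four randomised specificity codons, sequenced on Illumina before and after selection. Fitness is the rescaled log change in variant-to-wild-type read ratio, anchored to the cognate and non-cognate sites.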
row,Variant,one-hybrid fitness for binding NBS DNA
1,SPDC,≤ 0.2
2,GAPL,≤ 0.2
3,TGDI,≤ 0.2
4,KKCS,≤ 0.2
5,GSIG,≤ 0.2
6,EQLY,≤ 0.2
7,GTDR,≤ 0.2
8,CPVG,≤ 0.2
9,HNES,≤ 0.2
10,TMAT,≤ 0.2
11,PLDE,≤ 0.2
12,TISS,≤ 0.2
13,CAKF,≤ 0.2
14,VETL,≤ 0.2
15,NNMF,≤ 0.2
16,RIHY,≤ 0.2
17,RMFG,≤ 0.2
18,IHPQ,≤ 0.2
19,CYSP,≤ 0.2
20,EHQF,≤ 0.2
21,RTLW,≤ 0.2
22,VQNT,≤ 0.2
23,VMRE,≤ 0.2
24,GVPK,≤ 0.2
25,ISIH,≤ 0.2
26,LILT,≤ 0.2

row,Variant,one-hybrid fitness for binding NBS DNA
1,IYQV,≤ 0.2
2,TTFV,≤ 0.2
3,MVKT,≤ 0.2
4,PPPI,≤ 0.2
5,KNWT,≤ 0.2
6,KKIS,≤ 0.2
7,GRSC,≤ 0.2
8,AHIR,≤ 0.2
9,DNTM,≤ 0.2
10,NSQY,≤ 0.2
11,GESA,≤ 0.2
12,SATN,≤ 0.2
13,MVNT,≤ 0.2
14,HDED,≤ 0.2
15,SCAM,≤ 0.2
16,HRIS,≤ 0.2
17,CPLG,≤ 0.2
18,YGFR,≤ 0.2
19,QFLY,≤ 0.2
20,AWWS,≤ 0.2
21,CKGR,≤ 0.2
22,QPNK,≤ 0.2
23,DAGE,≤ 0.2
24,FNDR,≤ 0.2
25,YVLM,≤ 0.2
26,RRDK,≤ 0.2

row,Variant,one-hybrid fitness for binding NBS DNA
1,YRSR,≤ 0.2
2,LPPS,≤ 0.2
3,GGSK,≤ 0.2
4,KQFS,≤ 0.2
5,PLPA,≤ 0.2
6,SHVT,≤ 0.2
7,QMRG,0.391
8,INML,≤ 0.2
9,KDAG,≤ 0.2
10,TQNM,≤ 0.2
11,GYKS,≤ 0.2
12,PAHN,≤ 0.2
13,ISNR,≤ 0.2
14,TIDD,≤ 0.2
15,RYNV,≤ 0.2
16,EKCT,≤ 0.2
17,PTCI,≤ 0.2
18,PGGN,≤ 0.2
19,RGGM,≤ 0.2
20,GHQD,≤ 0.2
21,TCKN,≤ 0.2
22,GVGP,≤ 0.2
23,PSHA,≤ 0.2
24,QTIF,≤ 0.2
25,IWMG,≤ 0.2
26,IVNR,≤ 0.2

row,Variant,one-hybrid fitness for binding NBS DNA
1,RTCL,≤ 0.2
2,GRPV,≤ 0.2
3,YRTD,≤ 0.2
4,PTWD,≤ 0.2
5,PLVP,≤ 0.2
6,MRKP,≤ 0.2
7,NQFT,≤ 0.2
8,NAKL,≤ 0.2
9,AVGN,≤ 0.2
10,TCAR,≤ 0.2
11,LLEG,≤ 0.2
12,NLHG,≤ 0.2
13,LWLM,≤ 0.2
14,HTSY,≤ 0.2
15,HILE,≤ 0.2
16,RHWH,≤ 0.2
17,RWAF,≤ 0.2
18,INCS,≤ 0.2
19,MSLC,≤ 0.2
20,HTKY,≤ 0.2
21,TAPE,≤ 0.2
22,QLLD,≤ 0.2
23,AVSA,≤ 0.2
24,RSLP,≤ 0.2
25,QAKF,0.261
26,CHAH,≤ 0.2

row,Variant,one-hybrid fitness for binding NBS DNA
1,EKEV,≤ 0.2
2,ERKP,≤ 0.2
3,VKLC,≤ 0.2
4,VTGG,≤ 0.2
5,ALRA,≤ 0.2
6,RNVD,≤ 0.2
7,HIHL,≤ 0.2
8,HSKR,≤ 0.2
9,GVSL,≤ 0.2
10,NWTA,≤ 0.2
11,CNTW,≤ 0.2
12,NRWT,≤ 0.2
13,SSYE,≤ 0.2
14,LNST,≤ 0.2
15,IVLN,≤ 0.2
16,DGRT,≤ 0.2
17,RFKL,≤ 0.2
18,LQTG,≤ 0.2
19,TYGT,≤ 0.2
20,IDSL,≤ 0.2
21,HPER,≤ 0.2
22,RVNN,≤ 0.2
23,RGYM,≤ 0.2
24,KWSM,≤ 0.2
25,AHTM,≤ 0.2
26,HLPT,≤ 0.2

row,Variant,one-hybrid fitness for binding NBS DNA
1,PWLA,≤ 0.2
2,GRSW,≤ 0.2
3,EPSG,≤ 0.2
4,ADQR,≤ 0.2
5,QRMR,0.971
6,HIKL,≤ 0.2
7,QTMK,≤ 0.2
8,HLCL,≤ 0.2
9,CPKM,≤ 0.2
10,LAMM,≤ 0.2
11,LAAT,≤ 0.2
12,PWAT,≤ 0.2
13,QHDS,≤ 0.2
14,GGPY,≤ 0.2
15,PSAC,≤ 0.2
16,VWDG,≤ 0.2
17,CVSR,≤ 0.2
18,NLPN,≤ 0.2
19,SWPP,≤ 0.2
20,SYNE,≤ 0.2
21,MVIC,≤ 0.2
22,VSIV,≤ 0.2
23,REVY,≤ 0.2
